These results are taken from ChEMBL document CHEMBL4888484, “Replenishing the malaria drug discovery pipeline: Screening and hit evaluation of the MMV Hit Generation Library 1 (HGL1) against asexual blood stage Plasmodium falciparum ,using a nano luciferase reporter read-out” (2022).

In all, about 150,000 compounds went through this assay and about 540 (0.36%) showed an effect of 50% or more. This is one part of the list.

For this assay, the system named is Plasmodium falciparum. Put plainly: Primary screen in NF54 nanoGlo assay, in single point, at 2uM, 72h; a lower Z score goes with more inhibition. The format is functional, Erythrocyte. The note with it: timepoint 72 hour.
For `CN(CCCNS(=O)(=O)c1ccc(C(=O)O)cc1)c1ccccn1`, the % Inhibition (as a rule, the relative decrease from the control value, in per cent) is listed as -5% and the Z score worked out at 0.88.
The like results for `Cc1ncccc1C(=O)NC[C@@]12CCCC=C1N(CC1CC1)C(=O)CC2` were, in that order, -6% and 1.16.
Taken in the same sequence, the figures for `Cn1cc(S(=O)(=O)NCc2ccc(-c3ccoc3)o2)cn1` were -8% and 1.16.
On to `Cc1nn(C)c(C(=O)NCc2csc3c2CCCC3)c1Cl`, for which the “% Inhibition” value is -5% and the Z score is 0.62.
Taken in the same sequence, the figures for `CCC1(CC)C(NC2CCN(c3ncccn3)CC2)CC1OC` (stereo not drawn) were 13% and -1.17.
With `CCNCc1ccccc1OCCOC`, the “% Inhibition” value is on record as -21% and the Z score was found to be 2.25.
Taken in the same sequence, the figures for `Cc1nnc(CCC(=O)N2CCC(C)CC2)o1` were -10% and 1.34.
Taken in the same sequence, the figures for `CCCNc1ccc(C#N)cc1NS(=O)(=O)N(C)C` were -5% and 0.78.
Taken in the same sequence, the figures for `O=C(Cc1cc2ccccc2s1)N1CCC[C@@](O)(CO)C1` were -5% and 0.94.
Consider `Nc1nc(-c2cccc(Oc3ccccc3)c2)ns1`, for which the “% Inhibition” value is -3% and the Z score is recorded as 0.55.
Taken in the same sequence, the figures for `O=C1N(C2CCCC2)C(O)=NC12CCCCC2` were 9% and -1.38.
The like results for `Cc1cc(S(=O)(=O)N2CCC3(CC2)C[C@@H]3NC(=O)c2ccncc2)ccc1F` were, in that order, 0% and 0.05.
The like results for `CC(=O)c1cccc(NC(=O)Cn2c(=O)n(Cc3ccccc3)c(=O)c3nscc32)c1` were, in that order, -9% and 1.13.
In the case of `CC(=O)NC1CCN(C[C@H]2CCc3ccccc3C2)CC1`, the “% Inhibition” value worked out at 15% and the Z score is -1.76.
Taken in the same sequence, the figures for `CC(C)c1nc([C@H]2CCCN(c3nccn4cncc34)C2)no1` were 4% and -0.45.
Taken in the same sequence, the figures for `CN(C(=O)C1CC(F)(F)C1)c1ccccc1` were -7% and 1.29.
Taken in the same sequence, the figures for `CC1(C)CC(=O)c2cn(-c3ccccc3)c(=O)c(C(=O)NC3CCCCC3)c2C1` were 2% and -0.21.
For `Cc1cc(-c2noc(C3C[C@H]4C[C@@H](N)[C@H]4C3)n2)nc2ccccc12` (stereo partly drawn), the “% Inhibition” value is reported as -8% and the Z score was found to be 1.67.
Consider `CC1CCN(C[C@H]2CCCN(C(=O)COc3ccc(F)cc3)CC2)CC1`, for which the “% Inhibition” value came out at 2% and the Z score is -0.25.
The like results for `O=C(Nc1ccnc(OCC(F)(F)F)n1)N1CCn2cccc2C1` were, in that order, -6% and 0.78.
Taken in the same sequence, the figures for `Cc1c(C(=O)O)nn(-c2cccc(F)c2)c1Oc1ccc(NC(=O)CC(C)C)cc1S(=O)(=O)NC(C)(C)C` were 7% and -1.11.
Taken in the same sequence, the figures for `CCCC[C@H](C)c1nc(-c2ncccn2)no1` were -9% and 1.21.
Turning to `COc1ccc(-c2n[nH]cc2CNCCCOc2cccnc2)cc1F`, the “% Inhibition” value was found to be 4% and the Z score is given as -0.43.
Taken in the same sequence, the figures for `COc1ccc(-c2noc(Cn3cnc4ccc(Cl)cc4c3=O)n2)cc1OC` were -12% and 1.34.
